Experimental data reported in PubChem BioAssay AID651820 (National Center for Advancing Translational Sciences (NCATS), 2012).
Out of some 340,000 compounds screened, about 12,000 (3.5%) were called active. The inconclusive results got no clear call from the source; some entries with a clear call stand among them for comparison. Calls follow the shape of the dose curve; as a rule, active = well fitted inhibition curve with a large enough effect; inconclusive = small, poorly fitted or top-dose-only effect, or another doubt; inactive = no such curve, though single readings can be large or run the other way. Potencies of inconclusive entries are left out as doubtful fits.

Assay: qHTS Assay for Inhibitors of Hepatitis C Virus (HCV)
Conditions: Huh7.5.1 HCVcc-Cre (HCVcc is cell-culture hepatitis C virus) infection, luciferase reporter, 44 h; activity change, negative = inhibition: at 41.8 µM (top of the series) unless noted
Summary of the method: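 Cells (1,000/well) were plated 4 h before compound, then infected with HCVcc-Cre virus (~0.5 moi). After 44 h further culture, infection was read as luciferase luminescence following a 15 min substrate incubation at room temperature.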
% is scaled to controls: 0 for no effect and ±100 for the full control effect; potency is read from the fitted curve at half-maximal effect; tags tell the direction and shape of the fitted curve.

| SMILES | Potency | activity change, negative = inhibition |
| --- | --- | --- |
| S=C(NCCSCc1ccc(Cl)cc1Cl)Nc1ccccc1 | inconclusive [inhibitor, single point] |  |
| COc1cc(NC(=O)[C@@H](NC(=O)c2ccco2)C(C)C)c(OC)cc1NC(=O)c1ccccc1 | active: 7.94 µM |  |
| Nc1nccnc1C(=O)N/N=C/c1ccco1 |  | inactive: 21.3% |
| Cc1c(C(=O)N2CCN(c3ccccc3)CC2)sc2ncnc(N3CCN(c4ccccn4)CC3)c12 | inconclusive [inhibitor, single point] |  |
| Cc1ccc(C)c(S(=O)(=O)N2CCCOC2CNC(=O)C(=O)NCc2ccc3c(c2)OCO3)c1 (stereo not given) |  | inactive: -24.2% |
| Cc1ccc(-c2csc(NNC(=O)c3ccccc3)n2)cc1 | inconclusive [inhibitor, partial curve] |  |
| CCC1CCc2sc(C(=O)NC3CCN(Cc4ccccc4)CC3)cc2C1 (stereo not given) | active: 10 µM |  |
| O=C(Nc1cccc(NC(=O)c2cccc(F)c2)n1)c1cccc(F)c1 | inconclusive [inhibitor, single point] |  |
| Cc1ccc(Cn2cccc2C2=NC(C)CO2)cc1 (stereo not given) |  | inactive: 7.2% |
| Cc1oc(-c2ccccc2)cc1C(=O)Nc1cccc(/C=C/C(=O)O)c1 |  | inactive: 7.02% |
| O=C(CCCSc1nc(-c2ccco2)cc(C(F)(F)F)n1)NCc1cccs1 | inconclusive [inhibitor, single point] |  |
| COCCCOc1ccnc(CS(=O)c2nc3ccccc3[nH]2)c1C (stereo not given) | inconclusive [inhibitor, partial curve] |  |
| O=C(c1ccccc1)c1ccccc1NC(=O)C1CCCN1Cc1ccccc1 (stereo not given) | inconclusive [inhibitor, single point] |  |
| CCN(CC)CCC(=O)N1C/C(=C/c2ccccc2)C(=O)/C(=C\c2ccccc2)C1 | inconclusive [inhibitor, single point] |  |
| CCOC(=O)c1cccc(NC(=O)CSc2nnc(-c3cccnc3)n2CC)c1 | inconclusive [inhibitor, single point] |  |
| COc1ccc(/C=N\NC(=S)SCN2C(=O)C3CCC(C)(C2=O)C3(C)C)cc1 (stereo not given) |  | inactive: 16.2% |
| Cc1cc2n(n1)C(c1ccc3c(c1)OCO3)Nc1c(C)cccc1-2 (stereo not given) | inconclusive [inhibitor, single point] |  |
| Cc1nc(Nc2ccc(F)cc2)nc(Nc2ccc(F)cc2)c1[N+](=O)[O-] | inconclusive [inhibitor, single point] |  |
| O=C(Nc1cccs1)Nc1cccnc1Cl |  | inactive: -23.3% |
| CCn1c(=O)cc(SCC(=O)NCCCN2CCN(c3ccccc3F)CC2)c2ccccc21 | inconclusive [inhibitor, full curve, poor fit] |  |
| COc1ccc(-n2nc(C(=O)NCC(=O)NC3CCCCC3)c3ccccc3c2=O)cc1 | inconclusive [inhibitor, single point] |  |
| CCc1ccc(C(=O)Nc2cc3c(cc2Cl)OCCCO3)cc1 | inconclusive [inhibitor, single point] |  |
| COc1cccc(NC(=O)N2CCCCCC2)c1 |  | inactive: 17.3% |
| O=C(NC(c1ccccc1)c1c(O)ccc2ccccc12)c1ccccc1Cl (stereo not given) | active: 14.1 µM |  |

| SMILES | Potency | activity change, negative = inhibition |
| --- | --- | --- |
| Oc1ccc(Br)cc1C=Nc1ccc2[nH]ncc2c1 |  | inactive: 12.4% |
| CCCCC1(C(=O)OCC)CC(CSC(=N)N)OC1=O (stereo not given) |  | inactive: 8.74% |
| CCN(c1ccccc1)S(=O)(=O)c1ccc(C(=O)Nc2ccncc2)cc1 | inconclusive [inhibitor, single point] |  |
| Cc1ccc(NC(=S)N(C)Cc2cn(C)c3ccccc23)cc1 | inconclusive [inhibitor, single point] |  |
| COc1ccccc1Nc1nc(-c2ccc3c(c2)NC(=O)CO3)cs1 | active: 10 µM |  |
| Cc1ccc(-c2nnc(/C=C/c3ccccc3)o2)cc1 |  | inactive: 8.2% |
| COc1ccc(OC)c(C(=O)COC(=O)COc2ccccc2)c1 |  | inactive: 1.8% |
| Cc1cc(C(=O)NCCCN(C)C)c2ccccc2n1 |  | inactive: 23.9% |
| N#CC(C#N)=C1SC(=Nc2ccccc2)C(=Nc2ccccc2)N1c1ccccc1 | inconclusive [inhibitor, single point] |  |
| COc1cc(NC(=O)c2ccccc2)c(OC)cc1NC(=O)Cc1ccccc1 | inconclusive [inhibitor, partial curve, poor fit] |  |
| O=C(CNC(=O)c1ccc(Br)o1)Nc1ccc(F)c(S(=O)(=O)N2CCOCC2)c1 | inconclusive [inhibitor, single point] |  |
| O=C(NCCc1c[nH]c2ccccc12)c1cc(Cl)c2c(c1)OCO2 | inconclusive [inhibitor, partial curve, poor fit] |  |
| C#CCOCCOCCOCCNc1nc(N2CCN(C(=O)Cn3cc(CCCCN)nn3)CC2)nc(N2CCN(C(=O)[C@H](C)n3cc(CCCN=C(N)N)nn3)CC2)n1 |  | inactive: -5.12% [at 8.37 µM] |
| Oc1ccc(Nc2nc(Cl)nc(NCc3ccco3)n2)cc1 | inconclusive [inhibitor, single point] |  |
| CC(CC1CC(C)(C)OC1=O)C(=O)Nc1ccc([N+](=O)[O-])cc1 (stereo not given) |  | inactive: -10.5% |
| Cc1ccc(-c2[nH]ncc2C(=O)c2cccc(F)c2)c(O)c1 | inconclusive [inhibitor, single point] |  |
| CCOc1cccc(C(=O)NC2=NCCS2)c1 |  | inactive: -4.41% |
| CCOc1ccc(NC(=O)CC(c2ccccc2)c2ccc(F)cc2)cc1 (stereo not given) | inconclusive [inhibitor, full curve, poor fit] |  |
| COc1cccc(NC(=O)CN2C(=O)CSc3ccc(S(=O)(=O)N4CCC(C)CC4)cc32)c1 | inconclusive [inhibitor, single point] |  |
| S=C(Nc1cccc(Cl)c1)N(CCCN1CCCC1)Cc1cccn1Cc1ccc(Cl)cc1 |  | inactive: -27% |
| CCOC(=O)C1(c2ccccc2)CCN(CC(=O)Nc2cccc3ccccc23)CC1 | inconclusive [inhibitor, single point] |  |
| CCCCn1c(N)c(N(CC(C)C)C(=O)c2ccc(OCc3c(C)noc3C)cc2)c(=O)[nH]c1=O |  | inactive: 13.3% |
| Oc1ccc(C[C@H]2CNC(=S)N2CC2CCCN2C[C@H](Cc2ccccc2)N2C[C@H](Cc3ccc(O)cc3)N(CC3CCCCCC3)C2=S)cc1 (stereo not given in full) | inconclusive [inhibitor, full curve] |  |
| CC(C)c1ccc(C2C3=C(CC(C)(C)CC3=O)NC3=C2C(=O)c2ccccc23)cc1 (stereo not given) | active: 11.2 µM |  |

| SMILES | Potency | activity change, negative = inhibition |
| --- | --- | --- |
| Cc1ccc(S(=O)(=O)N(CC(=O)NCCC2=CCCCC2)Cc2ccccc2F)cc1 | inconclusive [inhibitor, partial curve] |  |
| Cc1ccc(S(=O)(=O)NCC(c2ccc3c(c2)OCO3)N2CCOCC2)cc1 (stereo not given) |  | inactive: 0.523% |
| COc1cc(/C=N/NC(N)=S)ccc1OCc1ccc(C)cc1 | inconclusive [inhibitor, full curve] |  |
| Cc1cc(C)c2c(n1)nn1c(N3CCN(Cc4ccccc4)CC3)cc(C)nc21 |  | inactive: 16.6% |
| CC(C)OC(=O)c1nnc(-c2ccccc2)nc1OC(C)C | inconclusive [inhibitor, single point] |  |
| Cc1ccc([N+](=O)[O-])cc1S(=O)(=O)NCC1COc2ccccc2O1 (stereo not given) | inconclusive [inhibitor, single point] |  |
| COc1ccc(C2(c3ccc(OC)cc3)NC(=O)N(CC(=O)Nc3ccc(OC)c(OC)c3)C2=O)cc1 | inconclusive [inhibitor, single point] |  |
| O=C(Cc1c[nH]c2ccccc12)N/N=C/c1ccccc1O | inconclusive [inhibitor, single point] |  |
| Cc1cccc(N2C(=O)c3cccc4cccc(c34)C2=O)c1 | inconclusive [inhibitor, single point] |  |
| O=C(NCc1ccccn1)c1ccccc1OCc1ccc(Cl)cc1Cl |  | inactive: -21.8% |
| CCCc1nnc(NC(=O)CCC(=O)N2CCN(Cc3ccc(C)cc3C)CC2)s1 | inconclusive [inhibitor, single point] |  |
| CCOC(=O)/C(=N\Nc1ccccc1[N+](=O)[O-])c1csc(N)n1 | inconclusive [inhibitor, partial curve] |  |
| CC(C)(C)n1nnnc1C(c1ccc(F)cc1)N(Cc1ccc(F)cc1)Cc1ccco1 (stereo not given) | inconclusive [inhibitor, single point] |  |
| COc1cc2oc(=O)ccc2cc1-c1c(OC)ccc2ccc(=O)oc12 | inconclusive [inhibitor, single point] |  |
| COc1ccccc1NC(=O)c1nn(C)cc1Br | inconclusive [inhibitor, single point] |  |
| COc1ccc([N+](=O)[O-])cc1NC(=O)C(C)OC(=O)c1ccccc1C(=O)c1ccc(Cl)cc1 (stereo not given) | inconclusive [inhibitor, partial curve] |  |
| CCOC(=O)N1CCC(N2CCCC(C(=O)c3ccc4cc(OC)ccc4c3)C2)CC1 (stereo not given) | inconclusive [inhibitor, single point] |  |
| O=C(Cc1cccs1)N1CCCC(c2nc3c(nnn3Cc3cccc(Cl)c3)c(=O)[nH]2)C1 (stereo not given) |  | inactive: 4.22% |
| O=C(CCn1c(=S)[nH]c2ccccc2c1=O)NCCc1ccc(Cl)cc1 | inconclusive [inhibitor, full curve, poor fit] |  |
| CCOC(=O)c1ccc(N2Cc3ccccc3C2=NC(=O)c2cccs2)cc1 |  | inactive: 2.42% |
| CN(C(=O)Cn1c(=O)oc2ccccc21)C1CCCCC1 |  | inactive: -1.07% |
| Cc1cccc(Nc2nc(N3CCCC3)nc(N3CCCC3)n2)c1 | inconclusive [inhibitor, partial curve] |  |
